# From the supplement of paper PMC8728848
# The other results are listed elsewhere or left out.
# Legend:
# Assay in all cases: glycan array binding signal (z-score within array); higher = stronger binding
# Conditions in all cases: glycan notation: IUPAC condensed, linker removed
# [1] = target: GlcNAc(b1-3)Gal(b1-4)GlcNAc
# How it was run: (§1)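 From the Consortium for Functional Glycomics database, 3228 arrays were curated, keeping only those whose protein sequence was available. Binding is given as a within-array Z-score averaged across arrays sharing a protein sequence and across linkers. Negative Z-scores can be read as non-binding.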
# [2] = target: GlcNAc(b1-3)Gal(b1-4)GlcNAc(b1-2)Man(a1-3)[GlcNAc(b1-3)Gal(b1-4)GlcNAc(b1-2)Man(a1-6)]Man(b1-4)GlcNAc(b1-4)GlcNAc
# How it was run: as §1
# [3] = target: GlcNAc(b1-3)Gal(b1-4)GlcNAc(b1-2)Man(a1-3)[GlcNAc(b1-3)Gal(b1-4)GlcNAc(b1-2)Man(a1-6)]Man(b1-4)GlcNAc(b1-4)[Fuc(a1-6)]GlcNAc
# How it was run: as §1
# [4] = target: GlcNAc(b1-3)Gal(b1-4)GlcNAc(b1-2)[GlcNAc(b1-3)Gal(b1-4)GlcNAc(b1-6)]Man(a1-6)[GlcNAc(b1-3)Gal(b1-4)GlcNAc(b1-2)Man(a1-3)]Man(b1-4)GlcNAc(b1-4)GlcNAc
# How it was run: as §1
# [5] = target: GlcNAc(b1-3)Gal(b1-4)GlcNAc(b1-3)Gal(b1-4)GlcNAc
# How it was run: as §1
# [6] = target: GlcNAc(b1-3)Gal(b1-4)GlcNAc(b1-3)Gal(b1-4)GlcNAc(b1-2)Man(a1-3)[GlcNAc(b1-3)Gal(b1-4)GlcNAc(b1-3)Gal(b1-4)GlcNAc(b1-2)Man(a1-6)]Man(b1-4)GlcNAc(b1-4)GlcNAc
# How it was run: as §1
# [7] = target: GlcNAc(b1-3)Gal(b1-4)GlcNAc(b1-3)Gal(b1-4)GlcNAc(b1-2)Man(a1-3)[GlcNAc(b1-3)Gal(b1-4)GlcNAc(b1-3)Gal(b1-4)GlcNAc(b1-2)Man(a1-6)]Man(b1-4)GlcNAc(b1-4)[Fuc(a1-6)]GlcNAc
# How it was run: as §1
# [8] = target: GlcNAc(b1-3)Gal(b1-4)GlcNAc(b1-3)Gal(b1-4)GlcNAc(b1-2)[GlcNAc(b1-3)Gal(b1-4)GlcNAc(b1-3)Gal(b1-4)GlcNAc(b1-6)]Man(a1-6)[GlcNAc(b1-3)Gal(b1-4)GlcNAc(b1-3)Gal(b1-4)GlcNAc(b1-2)Man(a1-3)]Man(b1-4)GlcNAc(b1-4)[Fuc(a1-6)]GlcNAc
# How it was run: as §1
# [9] = target: GlcNAc(b1-3)Gal(b1-4)GlcNAc(b1-3)Gal(b1-4)GlcNAc(b1-3)Gal(b1-4)GlcNAc(b1-2)Man(a1-3)[GlcNAc(b1-3)Gal(b1-4)GlcNAc(b1-3)Gal(b1-4)GlcNAc(b1-3)Gal(b1-4)GlcNAc(b1-2)Man(a1-6)]Man(b1-4)GlcNAc(b1-4)GlcNAc
# How it was run: as §1
# [10] = target: GlcNAc(b1-3)Gal(b1-4)GlcNAc(b1-3)Gal(b1-4)GlcNAc(b1-3)Gal(b1-4)GlcNAc(b1-2)Man(a1-3)[GlcNAc(b1-3)Gal(b1-4)GlcNAc(b1-3)Gal(b1-4)GlcNAc(b1-3)Gal(b1-4)GlcNAc(b1-2)Man(a1-6)]Man(b1-4)GlcNAc(b1-4)[Fuc(a1-6)]GlcNAc
# How it was run: as §1
# [11] = target: GlcNAc(b1-3)Gal(b1-4)GlcNAc(b1-3)Gal(b1-4)GlcNAc(b1-3)Gal(b1-4)GlcNAc(b1-2)[GlcNAc(b1-3)Gal(b1-4)GlcNAc(b1-3)Gal(b1-4)GlcNAc(b1-3)Gal(b1-4)GlcNAc(b1-6)]Man(a1-6)[GlcNAc(b1-3)Gal(b1-4)GlcNAc(b1-3)Gal(b1-4)GlcNAc(b1-3)Gal(b1-4)GlcNAc(b1-2)Man(a1-3)]Man(b1-4)GlcNAc(b1-4)[Fuc(a1-6)]GlcNAc
# How it was run: as §1
# [12] = target: GlcNAc(b1-3)Gal(b1-4)GlcNAc(b1-3)Gal(b1-4)GlcNAc(b1-3)Gal(b1-4)GlcNAc(b1-3)Gal(b1-4)GlcNAc(b1-2)Man(a1-3)[GlcNAc(b1-3)Gal(b1-4)GlcNAc(b1-3)Gal(b1-4)GlcNAc(b1-3)Gal(b1-4)GlcNAc(b1-3)Gal(b1-4)GlcNAc(b1-2)Man(a1-6)]Man(b1-4)GlcNAc(b1-4)GlcNAc
# How it was run: as §1
# [13] = target: GlcNAc(b1-3)Gal(b1-4)GlcNAc(b1-3)Gal(b1-4)GlcNAc(b1-3)Gal(b1-4)GlcNAc(b1-3)Gal(b1-4)GlcNAc(b1-2)Man(a1-3)[GlcNAc(b1-3)Gal(b1-4)GlcNAc(b1-3)Gal(b1-4)GlcNAc(b1-3)Gal(b1-4)GlcNAc(b1-3)Gal(b1-4)GlcNAc(b1-2)Man(a1-6)]Man(b1-4)GlcNAc(b1-4)[Fuc(a1-6)]GlcNAc
# How it was run: as §1
# [14] = target: GlcNAc(b1-3)Gal(b1-4)GlcNAc(b1-3)Gal(b1-4)GlcNAc(b1-3)Gal(b1-4)GlcNAc(b1-3)Gal(b1-4)GlcNAc(b1-2)[GlcNAc(b1-3)Gal(b1-4)GlcNAc(b1-3)Gal(b1-4)GlcNAc(b1-3)Gal(b1-4)GlcNAc(b1-3)Gal(b1-4)GlcNAc(b1-6)]Man(a1-6)[GlcNAc(b1-3)Gal(b1-4)GlcNAc(b1-3)Gal(b1-4)GlcNAc(b1-3)Gal(b1-4)GlcNAc(b1-3)Gal(b1-4)GlcNAc(b1-2)Man(a1-3)]Man(b1-4)GlcNAc(b1-4)[Fuc(a1-6)]GlcNAc
# How it was run: as §1
# [15] = target: GlcNAc(b1-3)Gal(b1-4)GlcNAc(b1-3)Gal(b1-4)GlcNAc(b1-3)GalNAc
# How it was run: as §1
# [16] = target: GlcNAc(b1-3)Gal(b1-4)GlcNAc(b1-3)GalNAc
# How it was run: as §1
# [17] = target: GlcNAc(b1-3)Gal(b1-4)GlcNAc(b1-3)[GlcNAc(b1-3)Gal(b1-4)GlcNAc(b1-3)]GalNAc
# How it was run: as §1
# [18] = target: GlcNAc(b1-3)Gal(b1-4)GlcNAc(b1-6)[Gal(b1-3)]GalNAc
# How it was run: as §1
# [19] = target: GlcNAc(b1-3)Gal(b1-4)GlcNAc(b1-6)[GlcNAc(b1-3)Gal(b1-3)]GalNAc
# How it was run: as §1
# [20] = target: GlcNAc(b1-3)Gal(b1-4)GlcNAc(b1-6)[GlcNAc(b1-3)]Gal(b1-4)GlcNAc
# How it was run: as §1
# GlcNAc(b1-3)GalNAc = target: GlcNAc(b1-3)GalNAc
# How it was run: as §1
# GlcNAc(b1-3)Man = target: GlcNAc(b1-3)Man
# How it was run: as §1
# [21] = target: GlcNAc(b1-3)[GlcNAc(b1-4)][GlcNAc(b1-6)]GlcNAc
# How it was run: as §1
# [22] = target: GlcNAc(b1-3)[GlcNAc(b1-6)]Gal(b1-4)GlcNAc
# How it was run: as §1
# [23] = target: GlcNAc(b1-3)[GlcNAc(b1-6)]GalNAc
# How it was run: as §1
# [24] = target: GlcNAc(b1-4)Gal(b1-4)GlcNAc
# How it was run: as §1
# GlcNAc(b1-4)GlcNAc = target: GlcNAc(b1-4)GlcNAc
# How it was run: as §1
# [25] = target: GlcNAc(b1-4)GlcNAc(b1-4)GlcNAc
# How it was run: as §1
# [26] = target: GlcNAc(b1-4)GlcNAc(b1-4)GlcNAc(b1-4)GlcNAc(b1-4)GlcNAc
# How it was run: as §1
# [27] = target: GlcNAc(b1-4)GlcNAc(b1-4)GlcNAc(b1-4)GlcNAc(b1-4)GlcNAc(b1-4)GlcNAc
# How it was run: as §1
# [28] = target: GlcNAc(b1-4)[GlcNAc(b1-6)]GalNAc
# How it was run: as §1
# [29] = target: GlcNAc(b1-6)Gal(b1-4)GlcNAc
# How it was run: as §1
# GlcNAc(b1-6)GalNAc = target: GlcNAc(b1-6)GalNAc
# How it was run: as §1
# [30] = target: GlcNAc6S(b1-3)Gal(b1-4)GlcNAc
# How it was run: as §1
# Kdn(a2-3)Gal(b1-3)GalNAc = target: Kdn(a2-3)Gal(b1-3)GalNAc
# How it was run: as §1
# Kdn(a2-3)Gal(b1-3)GlcNAc = target: Kdn(a2-3)Gal(b1-3)GlcNAc
# How it was run: as §1
# Kdn(a2-3)Gal(b1-4)Glc = target: Kdn(a2-3)Gal(b1-4)Glc
# How it was run: as §1
# Kdn(a2-3)Gal(b1-4)GlcNAc = target: Kdn(a2-3)Gal(b1-4)GlcNAc
# How it was run: as §1
# [31] = target: Kdn(a2-3)Gal(b1-4)[Fuc(a1-3)]GlcNAc
# How it was run: as §1
# Kdn(a2-6)Gal(b1-4)GlcNAc = target: Kdn(a2-6)Gal(b1-4)GlcNAc
# How it was run: as §1
# [32] = target: Man(a1-2)Man(a1-2)Man(a1-3)Man
# How it was run: as §1
# [33] = target: Man(a1-2)Man(a1-2)Man(a1-6)[Man(a1-3)]Man
# How it was run: as §1
# Man(a1-2)Man(a1-3)Man = target: Man(a1-2)Man(a1-3)Man
# How it was run: as §1
# [34] = target: Man(a1-2)Man(a1-3)[Man(a1-2)Man(a1-6)]Man
# How it was run: as §1
# [35] = target: Man(a1-2)Man(a1-3)[Man(a1-2)Man(a1-6)]Man(a1-6)[Man(a1-2)Man(a1-2)Man(a1-3)]Man
# How it was run: as §1
binder,measurement,setting,value
Clrb (Mus musculus) (protein) ITGATKTEQIPVNKTYAACPQNWIGVENKCFYFSEYPSNWTFAQAFCMAQEAQLARFDNQDELNFLMRYKANFDSWIGLHRESSEHPWKWTDNTEYNNTIPIRGEERFAYLNNNGISSTRIYSLRMWICSKLNSYSLHCQTPFFPSGTKHHHHHHHHG,glycan array binding signal (z-score),[1],2.31
same,glycan array binding signal (z-score),[2],0.301
same,glycan array binding signal (z-score),[3],0.94
same,glycan array binding signal (z-score),[4],0.54
same,glycan array binding signal (z-score),[5],1.74
same,glycan array binding signal (z-score),[6],1.33
same,glycan array binding signal (z-score),[7],1.51
same,glycan array binding signal (z-score),[8],0.215
same,glycan array binding signal (z-score),[9],-0.112
same,glycan array binding signal (z-score),[10],1.01
same,glycan array binding signal (z-score),[11],0.444
same,glycan array binding signal (z-score),[12],0.135
same,glycan array binding signal (z-score),[13],0.21
same,glycan array binding signal (z-score),[14],-0.147
same,glycan array binding signal (z-score),[15],-0.444
same,glycan array binding signal (z-score),[16],-0.422
same,glycan array binding signal (z-score),[17],-0.436
same,glycan array binding signal (z-score),[18],-0.36
same,glycan array binding signal (z-score),[19],-0.152
same,glycan array binding signal (z-score),[20],0.795
same,glycan array binding signal (z-score),GlcNAc(b1-3)GalNAc,-0.389
same,glycan array binding signal (z-score),GlcNAc(b1-3)Man,-0.377
same,glycan array binding signal (z-score),[21],-0.339
same,glycan array binding signal (z-score),[22],0.188
same,glycan array binding signal (z-score),[23],0.459
same,glycan array binding signal (z-score),[24],-0.413
same,glycan array binding signal (z-score),GlcNAc(b1-4)GlcNAc,3.54
same,glycan array binding signal (z-score),[25],3.47
same,glycan array binding signal (z-score),[26],3.75
same,glycan array binding signal (z-score),[27],7.67
same,glycan array binding signal (z-score),[28],3.69
same,glycan array binding signal (z-score),[29],1.87
same,glycan array binding signal (z-score),GlcNAc(b1-6)GalNAc,1.63
same,glycan array binding signal (z-score),[30],0.083
same,glycan array binding signal (z-score),Kdn(a2-3)Gal(b1-3)GalNAc,-0.342
same,glycan array binding signal (z-score),Kdn(a2-3)Gal(b1-3)GlcNAc,-0.157
same,glycan array binding signal (z-score),Kdn(a2-3)Gal(b1-4)Glc,-0.357
same,glycan array binding signal (z-score),Kdn(a2-3)Gal(b1-4)GlcNAc,-0.287
same,glycan array binding signal (z-score),[31],-0.378
same,glycan array binding signal (z-score),Kdn(a2-6)Gal(b1-4)GlcNAc,-0.348
same,glycan array binding signal (z-score),[32],-0.273
same,glycan array binding signal (z-score),[33],-0.42
same,glycan array binding signal (z-score),Man(a1-2)Man(a1-3)Man,-0.386
same,glycan array binding signal (z-score),[34],-0.336
same,glycan array binding signal (z-score),[35],-0.221
